# Reference: the supplement of paper PMC4604168 (melanoma cell lines)
# Some of the results follow. Many values rest on one well or one pass, so single values are uncertain.
# Assays:
# Test in all cases: cell count relative to DMSO control; melanoma cells; higher = more viable cells
# Conditions in all cases: library dose: standard library concentration; 72 h
# A101D = test system: A101D
# A2058 = test system: A2058
# A375 = test system: A375
# 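Further: cells treated in 1,536-well plates, then fixed and DAPI-stained, with nuclei counted from automated high-throughput microscope images.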
SMILES,cell count (A101D),cell count (A2058),cell count (A375)
"CN1CCN(c2ccc3nc(-c4c(N)c5c(F)cccc5[nH]c4=O)[nH]c3c2)CC1 [Dovitinib] + O=C(O)c1ccc(-c2c[nH]c3ncc(-c4ccccc4)cc23)cc1C1CCCC1 [GSK650394] (first compound 0.5 µM, partner dose 0.8 µM)",61%,16.8%,65%
"CN1CCN(c2ccc3nc(-c4c(N)c5c(F)cccc5[nH]c4=O)[nH]c3c2)CC1 [Dovitinib] + Cn1c(Nc2ccc(C(F)(F)F)cc2)nc2cc(Oc3ccnc(-c4ncc(C(F)(F)F)[nH]4)c3)ccc21 [CHIR265] (first compound 0.5 µM, partner dose 0.4 µM)",55.3%,42.9%,62.2%
"C=CCNC1=C2C[C@@H](C)C[C@H](OC)[C@H](O)[C@@H](C)/C=C(\C)[C@H](OC(N)=O)[C@@H](OC)/C=C\C=C(/C)C(=O)NC(=CC1=O)C2=O [Tanespimycin] + Cn1nnc2c(C(N)=O)ncn2c1=O [temozolomide] (first compound 0.01 µM, partner dose 10 µM)",83%,21.3%,93.3%
"CN1CCN(c2ccc3nc(-c4c(N)c5c(F)cccc5[nH]c4=O)[nH]c3c2)CC1 [Dovitinib] + CO[C@H]1C[C@@H]2CC[C@@H](C)[C@@](O)(O2)C(=O)C(=O)N2CCCC[C@H]2C(=O)O[C@H]([C@H](C)C[C@@H]2CC[C@@H](OCCO)[C@H](OC)C2)CC(=O)[C@H](C)/C=C(\C)[C@@H](O)[C@@H](OC)C(=O)[C@H](C)C[C@H](C)/C=C/C=C/C=C/1C [everolimus] (first compound 0.5 µM, partner dose 0.1 µM)",62.7%,16.9%,61.5%
"CS(=O)(=O)CCNCc1ccc(-c2ccc3ncnc(Nc4ccc(OCc5cccc(F)c5)c(Cl)c4)c3c2)o1 [lapatinib] + O=c1cc(-c2cccc3c2Sc2ccccc2S3)oc(N2CCOCC2)c1 [KU55933] (first compound 4 µM, partner dose 5 µM)",32.5%,85.4%,146%
"CS(=O)(=O)CCNCc1ccc(-c2ccc3ncnc(Nc4ccc(OCc5cccc(F)c5)c(Cl)c4)c3c2)o1 [lapatinib] + Clc1ccc(Nc2nnc(Cc3ccncc3)c3ccccc23)cc1 [vatalanib] (first compound 4 µM, partner dose 10 µM)",74.1%,87.2%,100%
"CS(=O)(=O)CCNCc1ccc(-c2ccc3ncnc(Nc4ccc(OCc5cccc(F)c5)c(Cl)c4)c3c2)o1 [lapatinib] + O=C(O)c1ccc(-c2c[nH]c3ncc(-c4ccccc4)cc23)cc1C1CCCC1 [GSK650394] (first compound 4 µM, partner dose 0.8 µM)",67%,74.7%,119%
"C=CCNC1=C2C[C@@H](C)C[C@H](OC)[C@H](O)[C@@H](C)/C=C(\C)[C@H](OC(N)=O)[C@@H](OC)/C=C\C=C(/C)C(=O)NC(=CC1=O)C2=O [Tanespimycin] + C=CCn1c(=O)c2cnc(Nc3ccc(N4CCN(C)CC4)cc3)nc2n1-c1cccc(C(C)(C)O)n1 [MK1775] (first compound 0.01 µM, partner dose 0.1 µM)",60.6%,56.7%,67.7%
"CNC(=O)c1cc(Oc2ccc(NC(=O)Nc3ccc(Cl)c(C(F)(F)F)c3)cc2)ccn1 [sorafenib] + CN(NC(=O)CC(=O)NN(C)C(=S)c1ccccc1)C(=S)c1ccccc1 [STA4783] (first compound 2 µM, partner dose 0.03 µM)",48.6%,7.32%,117%
"CS(=O)(=O)CCNCc1ccc(-c2ccc3ncnc(Nc4ccc(OCc5cccc(F)c5)c(Cl)c4)c3c2)o1 [lapatinib] + COCC[n+]1c2c(n(Cc3cnccn3)c1C)C(=O)c1ccccc1C2=O [YM155] (first compound 4 µM, partner dose 0.002 µM)",20%,11.6%,33.3%
"CN1CCN(c2ccc3nc(-c4c(N)c5c(F)cccc5[nH]c4=O)[nH]c3c2)CC1 [Dovitinib] + O=S(=O)(c1ccccc1)N(CC(F)(F)F)c1ccc(C(O)(C(F)(F)F)C(F)(F)F)cc1 [T0901317] (first compound 0.5 µM, partner dose 7 µM)",72.3%,40.6%,83.7%
"C[C@@H](Oc1cc(-c2cnn(C3CCNCC3)c2)cnc1N)c1c(Cl)ccc(F)c1Cl [Crizotinib] + Nc1ccn([C@@H]2O[C@H](CO)[C@@H](O)C2(F)F)c(=O)n1 [gemcitabine] (first compound 1 µM, partner dose 0.002 µM)",77.5%,34.5%,114%
"C=CCNC1=C2C[C@@H](C)C[C@H](OC)[C@H](O)[C@@H](C)/C=C(\C)[C@H](OC(N)=O)[C@@H](OC)/C=C\C=C(/C)C(=O)NC(=CC1=O)C2=O [Tanespimycin] + OCCn1cc(-c2cnc3nnn(Cc4ccc5ncccc5c4)c3n2)cn1 [PF04217903] (first compound 0.01 µM, partner dose 5 µM)",61.7%,66.8%,104%
"CNC(=O)c1cc(Oc2ccc(NC(=O)Nc3ccc(Cl)c(C(F)(F)F)c3)cc2)ccn1 [sorafenib] + CC(=O)c1c(C)c2cnc(Nc3ccc(N4CCNCC4)cn3)nc2n(C2CCCC2)c1=O [palbociclib] (first compound 2 µM, partner dose 0.2 µM)",80.4%,127%,81.8%
"CS(=O)(=O)CCNCc1ccc(-c2ccc3ncnc(Nc4ccc(OCc5cccc(F)c5)c(Cl)c4)c3c2)o1 [lapatinib] + Cc1cc(N2CCOCC2)cc2[nH]c(-c3c(NC[C@@H](O)c4cccc(Cl)c4)cc[nH]c3=O)nc12 [BMS536924] (first compound 4 µM, partner dose 1 µM)",57.8%,96.9%,126%
"CN1CCN(c2ccc3nc(-c4c(N)c5c(F)cccc5[nH]c4=O)[nH]c3c2)CC1 [Dovitinib] + C=CCNC1=C2C[C@@H](C)C[C@H](OC)[C@H](O)[C@@H](C)/C=C(\C)[C@H](OC(N)=O)[C@@H](OC)/C=C\C=C(/C)C(=O)NC(=CC1=O)C2=O [Tanespimycin] (first compound 0.5 µM, partner dose 0.01 µM)",69.7%,47.1%,70.9%
"CN1CCN(c2ccc3nc(-c4c(N)c5c(F)cccc5[nH]c4=O)[nH]c3c2)CC1 [Dovitinib] + Nc1ncn([C@H]2C[C@H](O)[C@@H](CO)O2)c(=O)n1 [decitabine] (first compound 0.5 µM, partner dose 0.5 µM)",68.2%,19%,63.3%
"CN1CCN(c2ccc3nc(-c4c(N)c5c(F)cccc5[nH]c4=O)[nH]c3c2)CC1 [Dovitinib] + O=C(Nc1cccc(Cl)c1)Nc1ncc(CCNc2ncnc3ccsc23)s1 [SNS314] (first compound 0.5 µM, partner dose 0.004 µM)",70.6%,29.9%,55.3%
"C[C@@H](Oc1cc(-c2cnn(C3CCNCC3)c2)cnc1N)c1c(Cl)ccc(F)c1Cl [Crizotinib] + NCC(=O)Nc1ccc(-n2nc(C(F)(F)F)cc2-c2ccc3c(ccc4ccccc43)c2)cc1 [OSU03012] (first compound 1 µM, partner dose 5 µM)",27.3%,65.3%,68.5%
"CNC(=O)c1cc(Oc2ccc(NC(=O)Nc3ccc(Cl)c(C(F)(F)F)c3)cc2)ccn1 [sorafenib] + C=C(c1ccc(C(=O)O)cc1)c1cc2c(cc1C)C(C)(C)CCC2(C)C [Bexarotene] (first compound 2 µM, partner dose 10 µM)",83.2%,79.3%,128%
"CS(=O)(=O)CCNCc1ccc(-c2ccc3ncnc(Nc4ccc(OCc5cccc(F)c5)c(Cl)c4)c3c2)o1 [lapatinib] + Cc1ccc(NC(=O)c2cccc(N(C)C)c2)cc1NC(=O)c1ccc(O)cc1 [ZM336372] (first compound 4 µM, partner dose 10 µM)",25.8%,80%,98.3%
"C[C@@H](Oc1cc(-c2cnn(C3CCNCC3)c2)cnc1N)c1c(Cl)ccc(F)c1Cl [Crizotinib] + CCCS(=O)(=O)Nc1ccc(F)c(C(=O)c2c[nH]c3ncc(Cl)cc23)c1F [PLX4720] (first compound 1 µM, partner dose 0.4 µM)",75.6%,101%,102%
"C[C@@H](Oc1cc(-c2cnn(C3CCNCC3)c2)cnc1N)c1c(Cl)ccc(F)c1Cl [Crizotinib] + CC1(C)NC(=O)N(c2ccc([N+](=O)[O-])c(C(F)(F)F)c2)C1=O [nilutamide] (first compound 1 µM, partner dose 5 µM)",80.8%,80.5%,87.9%
"C=CCNC1=C2C[C@@H](C)C[C@H](OC)[C@H](O)[C@@H](C)/C=C(\C)[C@H](OC(N)=O)[C@@H](OC)/C=C\C=C(/C)C(=O)NC(=CC1=O)C2=O [Tanespimycin] + O=C(O)c1ccc(-c2c[nH]c3ncc(-c4ccccc4)cc23)cc1C1CCCC1 [GSK650394] (first compound 0.01 µM, partner dose 0.8 µM)",54.7%,73%,105%
"CS(=O)(=O)CCNCc1ccc(-c2ccc3ncnc(Nc4ccc(OCc5cccc(F)c5)c(Cl)c4)c3c2)o1 [lapatinib] + CC1(C)NC(=O)N(c2ccc([N+](=O)[O-])c(C(F)(F)F)c2)C1=O [nilutamide] (first compound 4 µM, partner dose 5 µM)",83.5%,102%,105%
